First the molecules themselves.
B1: CPEB3 Ribozyme (parent)
chain: UAACAGGGGGCCACAGCAGAAGCGUUCACGUCGCAGCCCCUGUCAGAUUCUGGUGAAUCUGCGAAUUCUGCUGUAUAUCUC

Consider 68 variants from the RNAGym collection of RNA variant scans (doi:10.1093/nar/gkz1192).

Read counts are not given, so values of variants with three or more changes are uncertain.

Variants of B1 are the subject of this data set. The experiment in a line: self-cleavage, relative activity (ratio to wild type); higher = more cleavage; in vitro, sequencing. A digest of the protocol: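 After error-prone PCR and barcoding, CPEB3 ribozyme mutant libraries were transcribed with T7 RNA polymerase at 37°C for 5 hours, then given 15 min with DNase I before an EDTA stop, and they cleaved during both steps. Reverse transcription with template switching preceded Illumina sequencing. Relative activity divides a variant's cleaved/total read fraction by the unmutated ribozyme's. At least 5 reads were required per variant, and three batches were averaged.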
On to UCACAGGGGGCCACAGCAGAAGCGAUCACGUCGCAGCCCCUGUCAGAUUCUGGUGAAUCAGCGAAUUCUGCUGUAUAUCUC, for which the self-cleavage was 0.08.

In the case of GAACAGGGGGCCACAGCAGAAGCGCCCACAUCGCAGCCCCUGUCAGAUCCUGGUGAAUCUGCGAAUUCUGCUGUAUAUCUC, the self-cleavage was 0.06.

Turning to UGGCAGGGGGCCACAGCAGAAGCGUUCACGUCGCAGCCCCUGUCAGAUUCUGGUGAAUCUGCGAAUUCUGCGGUAUAUCUC, the self-cleavage is 0.66.

In the case of GAACAGGGGGCCACAGCAGAAGCGUCCACGACGCAGCCCCUGCCAGAUACUGGAGAAUCUGCGAAUUCUGCUGUAUAUCUC, the self-cleavage turned out to be 0.07.

For GAACAGGGGGCCACAGCAGAAGCGUUCACGUCGCAGCCGCUGUCUGAUUCCGGUGAACCUGCGAAUUCAGCUGUAUAUCUC, the self-cleavage came out at 0.04.

As to UCGCAGCGGGCCACAGCAGAAGCGUCCACGUCGCAGCCCCUGUCAGAUUCUGGUGAAUCUGCGAAUUCUGCUGUCUAUCUC, the self-cleavage was found to be 0.75.

With UGGCAGGGGGUCACAGCAGAAGCGUUCACGUCGCAGCCCCUGUCAGAUUCUGGUGAAUCUGCGAAUUCUGCUGUAUAUCUC, the self-cleavage is 0.82.

For the variant UGGCAGGGGGCCACAGCUGAAGCGUUCACGUCGCAGCCCCUGUCAGACUCUGGUGAAUCUGCGAAUUCUGCUGUAUAUCUC, the self-cleavage came out at 0.12.

As for UCACAGGGGUCCACAGCGGAAGCGUCCACGUCGCAGCCCCCGUCCGAUUCUGGUGAACCUGCGAAUUCUGCUGUAUAUCUC, the self-cleavage worked out at 0.04.

In the case of UGGCAGGGGGCCACAGCAGGAGCGUUCACGUCGCAGCCCCUGUCAGAUUCUGGUGAAUCCGCGAAUUCCGCUGUAUAUCUC, the self-cleavage stood at 0.49.

Regarding UCACAGGGGGCCACAGCAGAAGCGUUCACGUCGCAGCGCCUGUCAGAUCCUGGUGAAUCUGCGAAUUCAGCUGUAUAUCUC, the self-cleavage is 0.16.

With UGCCUGGGGGCCACAGCAGAAGCGUUCACGUCGCAGCCCCCGUCAGAUUCUGGUGGAUCUGCGAAUUCUGCUGUAUAUCUC, the self-cleavage was 0.83.

Regarding UGGCAGGGGGCCACAGCAGAAGCGUUCACGUCGCAGCCCCUGUCAGAUUCUGGUGAAUCUGCGAACUCUGCUGUGUAUCAC, the self-cleavage was 0.13.

For the variant UGGCAGGGGGCCACGGCAGAAGCGUUCACGUCGCAGCCCCUGUCAGAUUCUGGUGAAUCUGCGUAUUCUGCUGUAUAUCUC, the self-cleavage was 0.57.

As for GAACAGGGGGCCACAGCAGAAGUGUUCACGUCGCAACCCCUGUCAGAUUCUGGCGAAUCCGCGAAUUCUGCUGUAUAUCUC, the self-cleavage amounted to 0.17.

As for UCACAGGGGGCCACAGCAGAGGCGUUCACGUCGCAGCCCCAGUCAGAUCCUGGCGAAUCUGCGAAUUCUGCUGUAUAUCCC, the self-cleavage stood at 0.07.

As for UGGCAGGGGGCCACAGCAGAAGCGUUCACGCCGCAGCCCCUGUCAGAUUCCGGUGGAUCUGCGAAUUCUGCUGUAUAUCUC, the self-cleavage is 0.51.

With GAACAGGGGGCCACAACAGAAGCGUUCACGUCGCAGCCCCUGAAGGAUUCUGGUGAAUCUGCGAAUUCUGCUGUAUAUCUC, the self-cleavage was 0.42.

For the variant UCACGGAGGGCCACAGCAGAAGCGUUCACGUCGAAGCCCCUGUCAGAUUCUGGUGAAUCUGCGAAUUCUGCUGUAUAUCUC, the self-cleavage amounted to 0.33.

On to UGGCAGGGGGCUACAGCAGAAGUGUUCACGUCGCAGCCCCUGUCAGAUUCUGGUGAAUCUGCGAAUUCUGCUCUACAUCUC, for which the self-cleavage was found to be 0.84.

As for UGGCAGGGGGCCCCGGCAGAAGCGAUCACGUCGCAGCCCCUGUCAGAUUCUGGUGAAUCUGCGGAUUCUGCUGUAUAUCCC, the self-cleavage turned out to be 0.81.

As for GAACAUGGGGCCACAGCAGAAGCGUUCACGUCGCAGCCCCUGCCAGAUGCUGGUGAGUCUGCGAAUUCUGCUGUAUAUCUC, the self-cleavage was 0.53.

As for UCACAGGGGGCCACAGCAGGAGCGUUCACGUCGCAGCCCCUGUCAGAUUCUGGUGAAUCUGCGAAUUCAGCUGUAUAUCUC, the self-cleavage was determined as 0.28.

Regarding GAACAGGGGGCCACAGCAGAAGCGUUCACGUCGCAGCCCCAGUCAGAUUCCGGUGAAUCUGCGAAUUCUGCUGUUUAUCUC, the self-cleavage is 0.38.

Regarding UGGCUGGGGGCCACAGCAGAAGCGUCCACGUCGCAGCCCCUGUCAGAAUCUGGUGAAUCUGCGAAUUCUGCUGUAUAUCAC, the self-cleavage came out at 0.14.

For UCACAGGGGGCCACUGCAGAAGCGUUCACGUCGCAGCCCCCGACAGAUUCUGGUGAAUCUGCGAGCUCUGCUGUAUAUCCC, the self-cleavage stood at 0.07.

Regarding UCACAGGGGGCCACAGCAGAAGCGUUCACGUCGCUGCCCCUGUCAGAUUCUGGUGAAUCUGCGAAUUCCGCUGUAUACCUC, the self-cleavage turned out to be 0.31.

As to UGGCAGGGGGCCACGGCAUAAGCGUUCACGUCGCAGCCCCUGUCAGAUUCUGGUGAAUCUGCGAUUUCUGCUGUAUAUCUC, the self-cleavage was 0.11.

Take UCACAGGGAGCCACAGCAGAAGCGUUCACGUCGCAGCCCCUGUUAGACUCUGGUGUAUCUGCGAAUUCUGCUGUAUGUCUC: the self-cleavage was determined as 0.06.

Consider UGGCAGGGGGCCACAGCAGAAGCGUUCACGUCGCAGCCCCUGUCAGAUUCUGGUGAAUCUGCGAAUUCUGCUGUAUAUCAC, for which the self-cleavage was found to be 1.09.

Turning to UCACAAGGGGCCACAGCAGAAGCGUUCACGUCGCAGCCCCUGUCAGAUUCUGGUGUAUCAGCGAAUUCUGCUGUAUAUCUC, the self-cleavage was 0.27.

On to UGGCAGGGGGCCACAGCAGAAGCGUUCACGUCGCAGCCCCUGUCAGACUCUGGUGAAUCUGCGAAUUCUGCUGUAUAUCUC, for which the self-cleavage was found to be 0.93.

With UCACAGGGGGCCACAGUGGAAGCGUUCACGUCGCAGCCCCUGUCAGAUUCUGGUGAGUCUGCGAAUUCUGCUGUAUAUCUC, the self-cleavage came to 0.17.

GAACAGGAGGCCACAGCAGAAGCGUUCACCUCGCAGCCCCUGUCAGAUUCUCGUGAAUCUGCGAAUUCCGCUGUAUAUCUC: the self-cleavage is 0.04.

UCACAGGGGGCCAAAGCAGAAGCGUUCCCGUCGCAGCCCCUGUCAAAUCCUGAUGAAUCUGCGAAUUCUGCCGUAUAUCUC: the self-cleavage worked out at 0.05.

UCACAGGGGCCCACAGCAGAAGCGUUCACGUCGCAGCCCCUGUCAGAUUCUAGUGAAUCAGCGAAUUCUGCUGUAUAUCUC: the self-cleavage was 0.22.

For the variant UGGCAGGGGGCCACAGCAGAAGCGUUCACGUCGCAGCCCCUGUCAGAUUCUGGUGAAUCUGCGAAUUCUGCUGUAUAACUC, the self-cleavage came to 0.75.

For UGGCAGGGGGCCACAGCAGAAGCGUCCACAUCGCAGCCCCUGUCAGAUUCUGGUGAAUCCGCGAAUUAUGCUGUAUAACUC, the self-cleavage came out at 0.21.

GAACAGGGGGCCACAGCAGAAGCGCCCACAUCGCAGCCCCUGUCAGAUUCUGGUGAAUCUGCGAAUACUGCUGUAUAUCUC: the self-cleavage is 0.22.

UCACUGGGGGCCUCAGCAGAAGCGUUCACGUCGCAGCCCCUGUCAGAUUCUGGUGAAUCUGCGAAUUUUGCUGUAUAUCUC: the self-cleavage is 0.57.

As to GAACAGGGGGCCACAGCAGAAGCGUUCAUGACGCAGCCCCUGUCAGAUUCUGGUGAAUCUGCGAGUCCUGCUGUAUAUCUC, the self-cleavage worked out at 0.2.

On to UCACAGGGGGCCACAGCAGAAGCGUUCACGUCGCAGCCCCUGUCAGAUUCUGGUGAAUCCGCGGAUUCUGCUGUAUAUCUC, for which the self-cleavage was 0.21.

As for UCGCAGGGGGCCACAGCAUGAGCGUACACGUCGCAGCCCCUGGCAGAUUCAGGUGAAUCUGCGAAUUCUGCUGUAUAUCUC, the self-cleavage came to 0.06.

For UGGCCGGGGGCCACAGCAGAAGCGUUCACGUCGCAGCCCCUGUCAGAUUCUGGUGAAUCUGCGAAUUCUGCUGUAUAUCAC, the self-cleavage stood at 1.06.

As for UCACAGGGGGCCACAGCAGAAGCGUUCACGUCGCAGCCCCUGUCAGACUCUGGUGAAUCUGCGAAUUCUGCUGUAUACCUC, the self-cleavage is 0.25.

Consider UGGCAGGGGGCCACAGCAGAAGCGUUCACGACGCAGCCCCUGUCAGAUUCUGGUGAAUCUGCGAAUUCUGCUGUAUAUCUC, for which the self-cleavage is 0.7.

For GAACAGGGGGCCACAGCAGAAGCGUUCACGUCGCAGCCCCUGUCAGAUCCUGGUGAAUCUGCGAGUUCUGCUGUAUAUCUC, the self-cleavage was determined as 0.26.

With UCACAGGGGGCCACAGCAGAAGCGUUCACGUCGCAGCCCCUGUCAGAUUCUGGUGCAUCUGCUAAUUCUGCUGUAUAUCCC, the self-cleavage amounted to 0.5.

On to UCACGGGGGGCCACAGCAGAAGCGUUCACGUCGCAGCCCCUGUCAGAUUCUGGUGAAUCUGCGAACUCUGCUGCAUAUCUC, for which the self-cleavage amounted to 0.55.

With UCGCAGGGGGCCACAGCAUGAGCGUUCACGUCGCAGCCCCUGACAGAUUCUGGUGAAUCUGCGAAUUCAGCUGUAUAUCUC, the self-cleavage was determined as 0.64.

Take UCACAGGGGGCCACAGCAGAGGCGUUCACGUCGCAGCCCCUGUCAGAUUCUGGCGAGCCUGCGAAUUCUGCUGUAUAUCUC: the self-cleavage was determined as 0.14.

As for GAACAGGGGGCCACAGCAGAAGCGUUCACGUCGCAGCCACUGUCAGAUUCUGGUGACUCUGCGAAUUCUGCUGUAUAUCUC, the self-cleavage was found to be 0.05.

Consider UGGCACGGGGCUACAGCAGAAGCGUUCACGUCGCAGCCCCAGUCAGAUUCUGGUGAAUCUGCGAAUUCUGCUGUAUAUCUU, for which the self-cleavage was determined as 0.26.

Take UCACAGGGGGCCACAGCAGAAGCGCUCACGUCGCAGCCCCUGUCAGGUUCUGGUGAAUCUGCGAAUCCUGCUGUAUAUCUC: the self-cleavage stood at 0.12.

UCACAGGGGGGCACAGCAGAAGCGCUCACGUCGCAGCCCCUGUCAGACUCUGGUGAAUCUGCGAAUUCUGCUGUAUAUCUC: the self-cleavage worked out at 0.08.

Regarding UGGCAGGGGGCCACAGCAGGAGCGUUGACGUCGCAGCCCCUGUCCGAUUCUGGUGAAUCUGCGAAUUCUGCUGUAUAUCUC, the self-cleavage is 0.15.

Consider UCACAGGGGGCCACGGCAGAAGCGUUCAAGUCGCAGCCCCUGUCAGAUUCUGGUGAAUCUGCGAAUUCUGCUGUAUAUCUC, for which the self-cleavage is 0.46.

For UCACAGGGGGCCACAGCAGAAGCGUUCACGUCGCAGCCCCUGUCAGAUUCUGGUGAAUCUGCGAACUCUGCCGUAUAUCUC, the self-cleavage amounted to 0.19.

Regarding UCACAGGGGGCCACAGCAGAAGCGUUCACGACGCAGCCCCUGUCAGAUUCUGGUGAAUCUGCGAAUUCUUCUGUAUAUCUC, the self-cleavage turned out to be 0.14.

As for UGGCAGGGGGCCACGGCAGUAGCGUUCACGUCGCAGCCCCUGUCAGUUUCUGGUGAAUCUGCGAAUUCUGCUGUAUAUCCC, the self-cleavage was 0.1.

Take UGGCAGGGGGCCACAGCGGAAGCGUUCACGUCGCAGCCCCUGUCAGAUUCUGGUGAAUCUGCGAAUUCUGCCGUAUAUCUC: the self-cleavage was 0.87.

Take UCACAGGGGGCCACUGCAGAAGCGUUCACGUCGCAGCCCCUGUCAGAUUCUGGUGAAUCUGCGAAUUCUGCUGUAUAUCAC: the self-cleavage stood at 0.84.

In the case of GAACAGGGGGCCACAGCAGAAGCGCUCACGGCGCAACCCCUGUCAGAUUCUGGUGAAUCCGCGAAUUCAGCUAUAUAUCUC, the self-cleavage came out at 0.06.

Take GAACAGGGGGCCACAGCAGAAGCGUUCACGUCGCAGCCCCUGUCAGACUCUGGUGAAUCUGCGAGUUCUGCUGUAUCUCUC: the self-cleavage turned out to be 0.2.

For the variant UGGCAGGGGGCCACCGCAGAAGCGUUCACGUCGCAGCCCCUGUCAGAUUCUGGUGAAUCUGCGAAUUCUGCUGUAUAUCUC, the self-cleavage is 0.31.

With UGUCAGGGGGCCACAGCAGGUGCGUUCACGUCGCAGCCCCUGUCGGAUUCUGGUGAAUCUGCGAAUUCUGCUGUAUAUCUC, the self-cleavage worked out at 0.17.

As for UGUCAGGGGGCCACAGCUGCAGCGUUCACGUCGCAGCCCCUGUCAGAUUCUGGUGAAUCUGCGAAUCCUGCUGUAUAUCUC, the self-cleavage is 0.11.

UCACAGGGGGCCACAGCAGAAGCGUUCACGUCGCAGCCCCUGUCAGAUUCUGGUGAAGCUGCGAAUUCUGCCGUAUAUAUC: the self-cleavage came to 0.32.
